The supplement of paper PMC4166925
± gives the standard deviation of the averaged measurements. In all, about 33,000 sequences were measured (“E-score (dimensionless, -0.5 to 0.5)”: median about -0.046, highest 2% from about 0.36 on). The list shows a part of the results.

system: T1, SpTbr T-box DNA-binding domain (GST fusion); experiment: PBM E-score of 8-mer (E-score (dimensionless, -0.5 to 0.5)); Tbr is Tbrain of the sea star Patiria miniata (Pm) or the sea urchin Strongylocentrotus purpuratus (Sp); higher = stronger binding preference; most listed sequences are background and not binding sites; conditions: the construct has about 5 more residues each side
T1 sequence: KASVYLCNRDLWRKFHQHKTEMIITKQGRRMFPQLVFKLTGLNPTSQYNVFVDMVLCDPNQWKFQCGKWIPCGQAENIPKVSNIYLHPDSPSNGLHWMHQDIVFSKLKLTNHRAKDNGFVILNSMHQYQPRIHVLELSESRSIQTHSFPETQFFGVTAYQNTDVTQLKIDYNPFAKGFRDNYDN
Method: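 Universal protein-binding microarray (Agilent AMADID 016060, 60-bp probes with a 35-bp variable region) incubated with 200 nM GST-fused Strongylocentrotus purpuratus Tbr T-box DNA-binding domain (residues 362-554) in PBS pH 7.5. Scored for every ungapped 8-mer (given with its reverse complement) as E-score (range -0.5 to 0.5; >0.45 counts as bound) and Z-score of median probe intensity. Two replicate arrays (datasets 1 and 2).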
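Further: protein at 200 nM in PBS on universal double-stranded arrays.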

Row | Sequence | PBM E-score of 8-mer
1 | CAAACGCG | 0.0349 ± 0.059
2 | GCGTTAGA | 0.15 ± 0.005
3 | AATTAACG | -0.00363 ± 0.0013
4 | ATTACCTC | -0.204 ± 0.05
5 | AACGCGAC | 0.201 ± 0.06
6 | ATGCAAAG | -0.0736 ± 0.041
7 | TGCCGACA | 0.27 ± 0.015
8 | CCATTGTA | -0.103 ± 0.047
9 | TACAAGCA | 0.00511 ± 0.0098
10 | AATGCACT | 0.035 ± 0.052
11 | ACGTATAT | -0.0745 ± 0.0049
12 | CCCGAAAC | -0.051 ± 0.055
13 | ATCTGGTC | -0.136 ± 0.039
14 | TGATGCAA | -0.0481 ± 0.027
15 | GACAAACA | 0.113 ± 0.046
16 | ACCCGGAA | -0.289 ± 0.03
17 | GTCTAGAA | -0.242 ± 0.049
18 | TATTTAGA | -0.168 ± 0.1
19 | CTGAAGGC | -0.119 ± 0.067
20 | CATCCCCG | -0.117 ± 0.0087
21 | CAAAATTC | -0.221 ± 0.0047
22 | ATGATAGC | 0.00685 ± 0.007

Row | Sequence | PBM E-score of 8-mer
23 | GAAAGTCA | -0.165 ± 0.04
24 | AAAGCCCA | -0.365 ± 0.048
25 | AAGAATTA | -0.121 ± 0.087
26 | GCTTACGA | -0.0927 ± 0.017
27 | CGTCTCAA | -0.174 ± 0.06
28 | AAAGAAAA | -0.167 ± 0.11
29 | GTAATAGA | -0.0136 ± 0.055
30 | ATTCTAAC | -0.255 ± 0.06
31 | AATTTACA | 0.143 ± 0.08
32 | AGTATACG | 0.0625 ± 0.0019
33 | CCCCTTAC | -0.133 ± 0.057
34 | CAATAGCA | 0.0374 ± 0.022
35 | ACTACGCC | 0.0466 ± 0.028
36 | ATAACATC | -0.0812 ± 0.032
37 | ACTGGGTC | -0.102 ± 0.054
38 | TGGCGCCA | 0.338 ± 0.027
39 | GGAAAGAA | -0.287 ± 0.0031
40 | ATGGTATA | -0.0833 ± 0.077
41 | TGCGCCAA | 0.16 ± 0.021
42 | CGGGGTCA | -0.162 ± 0.032
43 | CCTGGGAC | -0.141 ± 0.022
44 | CCCTCCCA | -0.153 ± 0.058

Row | Sequence | PBM E-score of 8-mer
45 | AACAAGTA | 0.154 ± 0.015
46 | AACCTCTG | -0.137 ± 0.075
47 | GTTCAATA | -0.174 ± 0.0066
48 | AAGATCCA | -0.122 ± 0.0018
49 | CTTTCTTA | -0.0347 ± 0.024
50 | CTTCCGGA | -0.295 ± 0.023
51 | AGTACGCG | -0.0599 ± 0.077
52 | GACTCGGC | -0.0487 ± 0.0043
53 | GCGTAATA | 0.0418 ± 0.021
54 | TATCCCCA | -0.254 ± 0.023
55 | GAATAGTC | -0.113 ± 0.021
56 | ATGGGAAA | -0.2619 ± 0.002
57 | CACTCCAA | -0.08 ± 0.041
58 | CAAAAGTC | 0.00208 ± 0.0086
59 | ATAGCTCC | -0.185 ± 0.016
60 | GCTATACA | -0.182 ± 0.023
61 | ACCATAGT | -0.151 ± 0.02
62 | GTGTCTTA | -0.0357 ± 0.034
63 | CGCCATCC | 0.0293 ± 0.0097
64 | GTAAACAA | 0.15 ± 0.041
65 | AAACGAGT | 0.0307 ± 0.0047
66 | AACGATGC | 0.0143 ± 0.033

Row | Sequence | PBM E-score of 8-mer
67 | AGTTTCAA | -0.224 ± 0.014
68 | CTCAATGC | -0.0158 ± 0.0095
69 | ATGTTGAA | -0.1 ± 0.035
70 | AGCTCCTC | -0.213 ± 0.031
71 | CCGTGCCC | -0.244 ± 0.013
72 | TCCACGAA | -0.18 ± 0.043
73 | CATGAGGA | -0.28 ± 0.04
74 | CCCCACGA | 0.105 ± 0.026
75 | GACATTAA | -0.109 ± 0.042
76 | CGACTTGC | 0.0423 ± 0.016
77 | TACAGCTA | -0.231 ± 0.11
78 | CGTGAAAC | 0.338 ± 0.0092
79 | ACAATGAT | 0.0691 ± 0.01
80 | GTGAGGAA | 0.3085 ± 0.00095
81 | ACGCAAAT | 0.0967 ± 0.016
82 | GTTGCGAA | 0.393 ± 0.0099
83 | TCGGGCAA | 0.0261 ± 0.044
84 | AGACAGCG | -0.00288 ± 0.048
85 | GTCGGTAA | 0.0939 ± 0.0036
86 | ATATAAAC | -0.214 ± 0.1
